Drawing on the RNAGym collection of RNA variant scans (doi:10.1093/nar/gkz1192), this text covers self-cleavage for 34 variants.

The source gives no read counts; variants with many changes may rest on few reads.

B1: CPEB3 Ribozyme (parent)
chain: UAACAGGGGGCCACAGCAGAAGCGUUCACGUCGCAGCCCCUGUCAGAUUCUGGUGAAUCUGCGAAUUCUGCUGUAUAUCUC

The variants in the series derive from B1. In words: self-cleavage, relative activity (ratio to wild type); higher = more cleavage; in vitro, sequencing. Put shortly: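 Relative activity compares each variant's cleaved/total read fraction with that of the unmutated ribozyme. To get these fractions, barcoded CPEB3 ribozyme libraries from rounds of error-prone PCR were transcribed with T7 RNA polymerase for 5 hours at 37°C and then given 15 min of DNase I treatment before EDTA was added. The RNAs were reverse transcribed with template switching and sequenced on Illumina, and DNA sequencing linked barcodes to variants. A minimum of 5 reads applied, and three batches were averaged.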
Regarding UAGCAGGGGGCCACUGCAGAAGCGUUCGCGUCGCAGCCCCUGUCAGAUUCUGGUGAAUCUGCGAAUUCUGCUGUAUAUCUC [A3G A15U A28G], the self-cleavage was determined as 0.29.

In the case of UAGCAGGGGGCCACAGCGGAAGCGUUCACGUCGCAGCCCCUGUCAGAUUCUGGAGAGUCUGCGAAAUCUGCUGUAUAUCUC [A3G A18G U54A A57G U66A], the self-cleavage turned out to be 0.31. Then UAGCAGGGGGCCACAGCGGAAGCGUCCACGUCGCAGCCCCUGUCAGAUUCUGGUGAAUCUGCGAAUUCUGCUGUAUAUCUC [A3G A18G U26C], with 0.56; and UAGCAGGGGGCCACAGCGGAAGCGAUCACGUCGCAGCCCCUGUCAGAUUCUGGUGAAUCUGCGGAUUCUGCUGUACAUCUC [A3G A18G U25A A64G U76C], with 0.15; and UAGCAGGGGGCCACUGCAGGAGCGUUCACGUCGCAGCCCCUGUCAGAUUCAGGUGAGUCUGCGAAUUCUACUGUAUAUCUC [A3G A15U A20G U51A A57G G70A], with 0.07. With UAGCAGGGGGCCACAGCUGAAGCGUUCACGUCGCAGCCCCUGUCAGAUUCUGGUGAAUAUGCGAAUUCUGCUGUAUAUCUC [A3G A18U C59A], the self-cleavage amounted to 0.47.

For UAGCAGGGGGCCACAGCGGAAGCGUUCACGUCGCAGCCCCUGUCAGAUUCUGGCGAAUCUGCGAAUUCUGCUGUAUAUCUC [A3G A18G U54C], the self-cleavage came to 0.77. The figure for UAGCAGGGGGCCUCAGCAGAAGCGUUCACGCCGCAGCCCCCGUCAGAUUCUGGUGAAUCUGCGGAUUCCGCUGUAUAUCCC [A3G A13U U31C U41C A64G U69C U80C] is 0.24. With UAGCAGGGGGCCACAGCUGGAGCGUUCGCGUCGCAGCCCCUGUCAGAUUCUGGUGAGUCUGCGAAUUCUGCUGUAUAUCUC [A3G A18U A20G A28G A57G], the self-cleavage turned out to be 0.41. The figure for UAGCAGGGGGCCUCAGCAGAAGCGUUCACGUCGCUGCCCCUGUCAGAUUCUGGUGAAUCUGCGAAUUCCGCUGUAUAUCCC [A3G A13U A35U U69C U80C] is 0.31; for UAGCAGGGGGCCACAGCGGAAGCGUUCACGUCGCAGCCCCUGUCAGAUCCUGGUGAAUCUGCGAAUUCCGCUGUAUAUCUC [A3G A18G U49C U69C] it is 0.69. The figure for UAGCAGGGGGCCACAGCGGAAGCGUUCGCGUCGCAGCCCCUGUCAGAUUCUGGUGAAUCUGCGAAUUCUGCUGUACAUCUC [A3G A18G A28G U76C] is 0.51; for UAGCAGGGGGCCACAGCGGAGGCGUUCACGUCGCGGCCCCUGUCAGAUUCUUGUGAAUCUGCGAAUUCUGCCGUAUAUCCC [A3G A18G A21G A35G G52U U72C U80C] it is 1.25. Then UAGCAGGGGGCCUCAGCAGAAGCGUUCACGUCGCAGCCCCUGUCAGAUUCUGGUGAACCUGCGAAUUCUGCCGUAUAUCUC [A3G A13U U58C U72C], with 0.79. As to UAGCAGGGGGCCACAGCGGAAGCGUUCACGUCACAGCCCCUGUCAGACUCUGGUGAAUCUGCGAAUUCUGCUGAAUAUCUC [A3G A18G G33A U48C U74A], the self-cleavage was 0.3. The figure for UAGCAGGGGGCCACAGCGGAAGCGUUCACGUCGCAACCACUGACAGAUUCUGGUGAAUCUGCGAAUUCUGCUGUAUAUCUC [A3G A18G G36A C39A U43A] is 0.42; for UAGCAGGGGGCCACAGCUGAAGCGUUCACGUCGCAGCCCCCGUCAGAUUAUGGUGAAUCUGCGGAUUCUGCUGUAUAUCUC [A3G A18U U41C C50A A64G] it is 0.2. The figure for UAGCAGGGGGCCACAGCGGAAGCGUUCACGUCGCAGCCCCUGUCAGAUUCUGGUGAUUCUGCGAAUUCUGCUGUAUAUCUC [A3G A18G A57U] is 0.72; for UAGCAGGGGGCCACGGCAGAAGCGUUCACGUCGCAGCCCCUGUCACAUUCUGGUGAAUCUGCGAAUUCUGCUGUAUAUCUC [A3G A15G G46C] it is 0.2.

On to UAGCAGGGGGCCUCAGCAGAAGCGUUCACGUCGCAGCCCCUGUCAGAUUCUGGCGUAUCUGCGGAUUCUGCUGUAUAUCUC [A3G A13U U54C A56U A64G], for which the self-cleavage turned out to be 0.55. The figure for UAGCAGGGGGCCACAGCUGAGGCGUUCACGUCGCAGCCCCUGUCAGAUUCUGGUGAAUCUGCGUAUUCUUCUGUAUAUCUC [A3G A18U A21G A64U G70U] is 0; for UAGCAGGGGGCCACUGCAGAAGCGUUCACGACGCAGCCCCUGUCAGAUUCUGGUGAAUCUGCGAAUUCCGCUGUAUAUCUC [A3G A15U U31A U69C] it is 0.21; for UAGCAGGGGGCCGCAGCAGAAGCGUUCACGUCGCAGCCCCUGUCAGAUCCUGGUGAAUCUGCGAAUUCUGCUGUAUAUCUC [A3G A13G U49C] it is 0.2. The figure for UAGCAGGGGGCCACUGCUGAAGCGUUCAGGUCGCAGCCCCUGUCAGAUUCUGGUGAAUCUACGAAUUCUGCUGUACAUCUC [A3G A15U A18U C29G G61A U76C] is 0.11; for UAGCAGGGGGCCACGGCAGAAGCGUUCACGUCGCAGCCCCUGUCAGAUCCUGGUGAAUCUGCGAAUUCUGCUGUAUAUCCC [A3G A15G U49C U80C] it is 0.3. As for UAGCAGGGGGCCACCGCAGAAGCGUUCACGUCGCAGCCCCUGUCAGAUUCUGGUGAAUCUGCGAAUUCUGCAGUACAUCUC [A3G A15C U72A U76C], the self-cleavage came to 0.74. The figure for UAGCAGGGGGCCACAGCUGAAGCGUUCACGUCGCAGCCCCUGUCAGAUUCUGGUGAAUCUGCGAAUGCCGCUGUAUAUCUC [A3G A18U U67G U69C] is 0.25; for UAGCAGGGGGCCACAGCGGUAGCGUUCACGUCGCAGCCCCUGUCAGAUUCUGGUGAAUCUGCGAAUUCUGCUGUACAUCUC [A3G A18G A20U U76C] it is 0.54. The figure for UAGCAGGGGGCCACGGCAGAGGCGUUCACGUCGCAGCCCCUGUCAGAUUCUGGUGAAUCUGCGAGUUCUGCUGUAUAUCUC [A3G A15G A21G A65G] is 0.32; for UAGCAGGGGGCCUCAGCGGAGGCGUUCACGACGCAGCCCCUGCCAGAUUCUGGUGAAUCUGCGAAUUCUGCUGUAUAUCUC [A3G A13U A18G A21G U31A U43C] it is 0.1. Take UAGCAGGGGGCCACAGCGGAAGCGUUCACGUCGCAGCCCCUGUCAGAUUCUGGUGAAUCUGCGAAUUCUGCUGUAUAUCAC [A3G A18G U80A]: the self-cleavage amounted to 0.96.

Take UAGCAGGGGGCCACUGCAGAGGCGCUCACGUCGCAGCCCCUGUCAGAUUCUGGUGGAUCUGCGAAUUCUGCUGUAUAUCUC [A3G A15U A21G U25C A56G]: the self-cleavage was 0.36. The figure for UAGCAGGGGGCCUCAGCAGAAGCGUUCACGUCGCAGCCCCUGUCAGAUUCUGGCGAAUCUGCGAAUUCUGUCGUAUAUCUC [A3G A13U U54C C71U U72C] is 0.92; for UAGCAGGGGGCCACGGCAGAAGCGUUCUCGUCGCAGCCCCUGUCAGAUUCUGGUGAAUCAGCGAAUUCUGCCGUAUAUCUC [A3G A15G A28U U60A U72C] it is 0.32.
